Reference: the supplement of paper PMC6206098
± gives the uncertainty stated by the source. Shown are siRNA guide strands that differ only in the seed, positions 2 to 7.

Columns and labels:
3LL = experiment: cell viability relative to siNT1 control; higher = less toxic; details: concentration: 10 nM; 96 h; Mus musculus;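 also: Luminescence-based viability of cells reverse transfected in 384-well plates with lipid-complexed siRNAs built on a non-toxic 19mer backbone whose passenger strand carries 2′-O-methyl groups at positions 1 and 2, triplicates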
HeyA8 = experiment: cell viability relative to lipid-only control; HeyA8 human ovarian and H460 human lung cancer; M565 mouse liver and 3LL mouse lung cancer; siNT1 is a non-toxic control siRNA; higher = less toxic; details: concentration: 10 nM; 96 h; Homo sapiens
Method: (§1)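 Arrayed screen of 4096 siRNA duplexes, each carrying one of all possible 6mer seeds at guide-strand positions 2-7 in a fixed neutral 19mer scaffold (constant flanks: U at position 1, then ACAUGUAAACCA, plus a 3' AA overhang). The passenger strand is 2'-O-methylated at positions 1-2 so only the guide strand loads into RISC. Duplexes were reverse-transfected at 10 nM with RNAiMAX in triplicate in 384-well plates; viability was read by CellTiter-Glo ATP content 96 h after transfection. Values are % viability normalised to lipid-only wells (HeyA8, H460, M565) or to siNT1 (3LL).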

H460 = experiment: as above; details: concentration: 10 nM; 96 h; Homo sapiens
Method: as §1

M565 = experiment: as above; details: concentration: 10 nM; 96 h; Mus musculus
Method: as §1
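For cell viability relative to lipid-only control in this document: reverse lipid transfection in 384-well plates, in triplicate, of duplexes on a non-toxic 19mer backbone with passenger strand 2′-O-methylated at positions 1 and 2, luminescence viability read-out.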

| Sequence | cell viability (3LL) [%] | cell viability (HeyA8) [%] | cell viability (H460) [%] | cell viability (M565) [%] |
| --- | --- | --- | --- | --- |
| UGCGCCCACAUGUAAACCAAA | 38.3 ± 6.1 | 24 ± 1.7 | 45.8 ± 3.8 | 34.7 ± 3.9 |
| UGAUCAAACAUGUAAACCAAA | 85.3 ± 22 | 51.6 ± 7.7 | 50.9 ± 6.6 | 37.8 ± 7.2 |
| UUCAAACACAUGUAAACCAAA | 77 ± 8.3 | 53.8 ± 8.2 | 50.9 ± 6.9 | 104 ± 12 |
| UGAUAUCACAUGUAAACCAAA | 32.4 ± 6.5 | 11.6 ± 0.87 | 38.9 ± 7.9 | 51.7 ± 5.2 |
| UUAUUAUACAUGUAAACCAAA | 41.6 ± 1.7 | 86.7 ± 3.4 | 68.2 ± 9.4 | 97.6 ± 12 |
| UAAGCCCACAUGUAAACCAAA | 15.3 ± 5.4 | 52.3 ± 11 | 58.1 ± 10 | 24.2 ± 3.5 |
| UUUAGGAACAUGUAAACCAAA | 89.4 ± 3.6 | 91 ± 6 | 71.6 ± 12 | 79.5 ± 2.9 |
| UCUAUCUACAUGUAAACCAAA | 94.5 ± 12 | 82.9 ± 9 | 59.9 ± 9.2 | 61 ± 11 |
| UGCGGGGACAUGUAAACCAAA | 13.3 ± 4.2 | 3.07 ± 0.45 | 17.3 ± 2.2 | 22 ± 5.3 |
| UGGUGAGACAUGUAAACCAAA | 4.66 ± 1.1 | 17.8 ± 1.7 | 20.7 ± 3 | 10.4 ± 1.8 |
| UGAGUGAACAUGUAAACCAAA | 70.8 ± 18 | 81.6 ± 9.7 | 67.6 ± 6.2 | 14.3 ± 4.3 |
| UGUCAUGACAUGUAAACCAAA | 76.1 ± 17 | 79.44 ± 0.2 | 29.4 ± 5 | 49.1 ± 14 |
| UAUUCUGACAUGUAAACCAAA | 99.1 ± 22 | 95.2 ± 12 | 64.2 ± 4.5 | 88 ± 3.7 |
| UUUAUGUACAUGUAAACCAAA | 58.6 ± 6.7 | 80.4 ± 4.9 | 61 ± 4.2 | 50 ± 20 |
| UACACAAACAUGUAAACCAAA | 84.7 ± 7 | 85 ± 4.8 | 77.2 ± 2 | 49.3 ± 2.1 |
| UCCAGCCACAUGUAAACCAAA | 17.4 ± 3.5 | 11.5 ± 0.81 | 16.3 ± 2.4 | 6.65 ± 1.9 |
| UCGUGGUACAUGUAAACCAAA | 41.5 ± 8.9 | 39.7 ± 1.5 | 27 ± 6 | 40.5 ± 9.6 |
| UGUUGCGACAUGUAAACCAAA | 71.2 ± 8.6 | 63 ± 5.9 | 94.6 ± 14 | 22.1 ± 2.5 |
| UCACAGCACAUGUAAACCAAA | 48.3 ± 16 | 23.4 ± 2.7 | 18.2 ± 1.2 | 41.4 ± 3.8 |
| UAUAAGUACAUGUAAACCAAA | 62.4 ± 16 | 91.6 ± 9.8 | 76.8 ± 13 | 48.8 ± 14 |
| UUGGCGAACAUGUAAACCAAA | 83.1 ± 8.9 | 94.4 ± 3.2 | 60.6 ± 9.4 | 58.7 ± 8.6 |
| UUCGAGAACAUGUAAACCAAA | 97 ± 19 | 79.3 ± 4.9 | 75.9 ± 6.2 | 89.6 ± 11 |
| UCGCAAGACAUGUAAACCAAA | 94 ± 13 | 83.2 ± 4.5 | 75.5 ± 4.2 | 75.3 ± 1.5 |
| UGUUUCCACAUGUAAACCAAA | 55.2 ± 21 | 4.57 ± 1.1 | 47 ± 5.9 | 83.5 ± 21 |
| UAUUGUCACAUGUAAACCAAA | 18.7 ± 3.7 | 64.1 ± 3.5 | 71.1 ± 6.9 | 109 ± 18 |
| UUUUACUACAUGUAAACCAAA | 93.5 ± 7.6 | 98.6 ± 10 | 72.4 ± 11 | 93.8 ± 7.5 |
| UCAUGGUACAUGUAAACCAAA | 79.1 ± 14 | 30.3 ± 1.7 | 31.1 ± 1.8 | 27.7 ± 7.2 |
| UAUUGACACAUGUAAACCAAA | 93.8 ± 18 | 79.6 ± 5.2 | 61.8 ± 3.4 | 47.3 ± 9 |
